Measured values from the RNAGym collection of RNA variant scans (doi:10.7554/elife.90254).
The source gives no read counts; variants with many changes may rest on few reads.

B1: LINE1-full (parent)
chain: UACGUAGGUGGUUUUCCCCUGAUAGUGCUAAGGGGGCCUGGAAGUUUGGACUGGGCAGAGCUCAACACAGCGUGGCAAAGUGGCUGUGGCUAGACUGCCUCUCUGGAUUCCUCGUCACUCAGCAGGGCAUCUCUGAGAGAAAUGCC

Variants of: B1
Assay: self-cleavage, relative activity (ratio to wild type); higher = more cleavage; in vitro, sequencing; the parent is a self-cleaving ribozyme
U14C U15C U20G A43U gave a self-cleavage of 0.89. G35A U47C C123A gave a self-cleavage of 0.95. U15C U85C U91C gave a self-cleavage of 0. In the case of U62C A129G A141G, the self-cleavage is reported as 0.06. Variant A6G U14C U73C has a self-cleavage of 0.66. C17U A42G A124G gave a self-cleavage of 1.25. U62A C120U U134C showed a self-cleavage of 0.03. For U9C A65U C110A, the self-cleavage was 0.25. Variant U13C A43U A64U A94C has a self-cleavage of 0.04. Work on U26A A42G A107G U119C yielded a self-cleavage of 1.53. With U14A U29C A43G the self-cleavage was 1.71. For U1A U62C U85A A124G, the self-cleavage was 0.15. Variant U5A C66U A129G A142G has a self-cleavage of 0.03. Variant A6U U9C A50G has a self-cleavage of 0.74. Work on U29C G34U A77G yielded a self-cleavage of 1.86. Variant U73C C95A A129G has a self-cleavage of 0.14. G72A U134G A136G showed a self-cleavage of 1.9. U119A U130C U134A showed a self-cleavage of 1.48. With U52C A77G A140U the self-cleavage was 2.99. With U20A A22G U23C A67U A77U C99U the self-cleavage was 0.24. Work on G11A U26C A57G U91C yielded a self-cleavage of 0.68. A6G A22G U96C A141G showed a self-cleavage of 0.24. U20A U29A A67U U143C showed a self-cleavage of 0.03. In the case of U12C U15C U20A U132C, the self-cleavage is reported as 1.7. With U12C U47A G75A A94U the self-cleavage was 0.14. Variant U20C U81C U132C has a self-cleavage of 1.23. Variant U26C U52A A78G has a self-cleavage of 0.51. Work on A6G U20A U39A yielded a self-cleavage of 1.37. C103A A107G U108A U119C A138G gave a self-cleavage of 1.45. C19A U62A A117G U134C showed a self-cleavage of 0.09. For A77G U109A A117U, the self-cleavage was 2.6. A42G U52A U102C U130A U134C showed a self-cleavage of 2.47. Variant U1C A57U A69G U96G has a self-cleavage of 0. With U9A A22G A43G A79G the self-cleavage was 0.79. With U15C U108C U134C the self-cleavage was 0.57. In the case of A2G A50U U85A U87C A141G, the self-cleavage is reported as 0.29. With U52A A57G A64G U115A A138G the self-cleavage was 0.82. U96C U100C A140G gave a self-cleavage of 0.61. Work on U9C G35A U45C A78U yielded a self-cleavage of 1.62. Variant A69G A78G C111U U132C A140G has a self-cleavage of 0.11. U47A U52A U73G gave a self-cleavage of 1.52. Work on U12C A64G C123U yielded a self-cleavage of 0.32. A42G U115A A124U showed a self-cleavage of 0.78. U20C U45C U46C A69U showed a self-cleavage of 0. Work on A6G U115C G122A A124G A140G yielded a self-cleavage of 0.88. For U5A U46G U62A U85A A129G, the self-cleavage was 0. In the case of G41A A43G A117G, the self-cleavage is reported as 2.1. Work on U45C U112C A138G yielded a self-cleavage of 1.08. In the case of U20C A50U G58U A69U U87C A124U, the self-cleavage is reported as 0.09. U62C A77C U96C gave a self-cleavage of 0.15. U73C U81C U91C G114A showed a self-cleavage of 0.74. G25C U104C A124C A140U A142G gave a self-cleavage of 0.92. U26A U47A A79G U115C U130C gave a self-cleavage of 0.48. With A2G A107G A136U the self-cleavage was 1. In the case of U9C G127C U143C, the self-cleavage is reported as 1.72. Variant U96C U100C U134A has a self-cleavage of 0.6. In the case of A2G U13C U39A U109C U115C, the self-cleavage is reported as 0.48. With U14C U26C U119A the self-cleavage was 1.09. For A30G U62C A142G, the self-cleavage was 0.32. Variant U13C A22U A59G G114U has a self-cleavage of 0.12. With C113U A124G U132A the self-cleavage was 1.19. In the case of U9C U109A A138G, the self-cleavage is reported as 2.17. With G93A A94G U104C the self-cleavage was 0.14. For A67U U96C U115C G122A G127A A140G, the self-cleavage was 0.01. U73A A92C U100A A117U showed a self-cleavage of 0.1. U5C U12G U14C G36C G48A U73C showed a self-cleavage of 1. With U29C A67G A77U U119C the self-cleavage was 0.61. With U26G U52A G89A A136G the self-cleavage was 0.03. U13C U45G G125A gave a self-cleavage of 1. In the case of U20C C51U U96G U102C, the self-cleavage is reported as 0. A69G U87A U112G showed a self-cleavage of 0.36. With U5C U47G U87C the self-cleavage was 0. For U47C C56U A117G, the self-cleavage was 0.41. U104A A107G A138G showed a self-cleavage of 0.5. For G35A A42G A50U U62A, the self-cleavage was 0.09. U45A A65U A79C U87A A142G showed a self-cleavage of 0.03. U29C U47C C66U gave a self-cleavage of 0.04. In the case of G27U G40U U47A A67G, the self-cleavage is reported as 0.21. With U87A U102C C128U the self-cleavage was 0.03. U1G U13C A59G A65G A79U G126C gave a self-cleavage of 0.66. With C16U C56G U96C U100C A107G the self-cleavage was 0. Work on G10A U12C U14C U47A A78G U143C yielded a self-cleavage of 0.42. For U23C A24G A65C, the self-cleavage was 0. Work on U52C A64U G83A yielded a self-cleavage of 0.12. With U15C U47C G53U A65G U100A the self-cleavage was 0.08. U20C A78G A141G showed a self-cleavage of 2.09. Work on U9A U45A U109A yielded a self-cleavage of 1.63. Variant U13A A22G G74A has a self-cleavage of 0.8. With U14C A79G G83A U96A U115C the self-cleavage was 0.04. For U1A G10A G126A, the self-cleavage was 0.99. G7U U14C G54A A67G showed a self-cleavage of 0.33. With G10U A30U U52C the self-cleavage was 1.5. U102C U119C A129U gave a self-cleavage of 0.77. With C103A U119C A140G the self-cleavage was 1.36. With A24G G54A A67G C116U U132C the self-cleavage was 0.14. With A24G U73A U85C U115A the self-cleavage was 0.3. For U9A C66U U109C, the self-cleavage was 0. Variant U12C G32U G72A A141G has a self-cleavage of 1.19. Work on A6G U13C G49A yielded a self-cleavage of 0.64. Work on A67U A138G U143C yielded a self-cleavage of 0.2. For A69G A78G C120A, the self-cleavage was 0.23. In the case of U15C U47G U112A, the self-cleavage is reported as 1.62. U15A A42G U47A U62C U112C gave a self-cleavage of 0. For U85C U108C A136G G137A, the self-cleavage was 0. A79G U81A U102C showed a self-cleavage of 0.68. G93A U134C A140G gave a self-cleavage of 0.02. Variant U39A G89U U102C has a self-cleavage of 0.05. Work on G10A U47C U73A yielded a self-cleavage of 0.91. Variant U14C G41U G82A has a self-cleavage of 1.97. U1C U9C U132A gave a self-cleavage of 0.9. Work on U52A A117G A138G yielded a self-cleavage of 1.93. Variant U12C U45C A141G has a self-cleavage of 1.11. U15C U26A U134C gave a self-cleavage of 1.26. In the case of U12C G88A U132C, the self-cleavage is reported as 0.03. U1C A6G G74A U85C U112C gave a self-cleavage of 0.29. Work on A2G U14C A64U U119G yielded a self-cleavage of 0.46. U12C U87C A124G gave a self-cleavage of 0.21. Work on A59U U73A A77U U87A U119A U130C yielded a self-cleavage of 0.05. Work on C71U U85A A94G yielded a self-cleavage of 0. For A30G A57U C61U U115A A140G, the self-cleavage was 0.08. In the case of U85A G93U A129G, the self-cleavage is reported as 0.05. For U23C A30G U46A A117C U119A, the self-cleavage was 2.01. In the case of G32A U100C U130C A136G, the self-cleavage is reported as 2.67. Work on U12A A57G C66U A79G yielded a self-cleavage of 0.08. U12G G74A U108C U119C showed a self-cleavage of 2.83. U13C U47C U104C A136G showed a self-cleavage of 0.92. For U96C A124G A140G, the self-cleavage was 0. With U20C U87G A138G the self-cleavage was 0.14. U52C U130C U143A gave a self-cleavage of 1.1. For U9A A24U A65U U102A, the self-cleavage was 0.15. Variant U47A A129G U134A U143C has a self-cleavage of 1.34. U12G U73C A77U showed a self-cleavage of 1.53. With U73A U100C A121U the self-cleavage was 1.71. Variant U52A U62C A92U A117G A140U has a self-cleavage of 0. In the case of U85C A141G A142G, the self-cleavage is reported as 0. A67G U85C U100C gave a self-cleavage of 1.25. U13C A24G A64U A141G showed a self-cleavage of 0.71. Work on U13A U14C C111A yielded a self-cleavage of 0.69. With A6G A43G U134C the self-cleavage was 0.3. A31U U100C A142G showed a self-cleavage of 1.31. U12C G53A U85C U100A A107G gave a self-cleavage of 0. A30U A77G U81C U104A A141G gave a self-cleavage of 1.15. With U9C A42G G48A A65G the self-cleavage was 0.15. Variant G36A C51U U100C U143C has a self-cleavage of 1.46. A79G A94G A141G gave a self-cleavage of 0. In the case of U15C A31U U143C, the self-cleavage is reported as 0.54. Variant U26G C101U U119A A124G has a self-cleavage of 1.37. In the case of U12C G58A A129U, the self-cleavage is reported as 0.12. U45C U100A A138G gave a self-cleavage of 0.93. Work on A79G U85C U112A yielded a self-cleavage of 0.14. G34A A92G C101A U132A showed a self-cleavage of 0.05. In the case of U87G C98A A138G, the self-cleavage is reported as 0.03. Variant A64U U85C A138G A141G has a self-cleavage of 0.02. For A65G A124G A141G, the self-cleavage was 0. Variant A65G A92G U130A has a self-cleavage of 0. U20C A42U U73A gave a self-cleavage of 1. A64G U130C A141G gave a self-cleavage of 0.43. Work on A57G A69G C99U A141G yielded a self-cleavage of 0.06. A50G U81A A94U A107U U130C showed a self-cleavage of 0.54. For G7A U104C A121U, the self-cleavage was 1.94. Variant U39A A65U U115G has a self-cleavage of 0. Work on A30G U39C A124U yielded a self-cleavage of 1.08. Variant A42G A92G U100C has a self-cleavage of 0. With U62A A107G U119C the self-cleavage was 0. In the case of C18U U20A U91A A142G, the self-cleavage is reported as 0. In the case of A77U U96A G122A A140G, the self-cleavage is reported as 0. In the case of U12C U14C A77G U96A U130C, the self-cleavage is reported as 0.
